Test results as given in the supplement of paper PMC7335073.
Whole data set: some 4,100 sequences, median “relative CpG methylation activity (normalised to average over all NNNCGNNN flanks)” near 0.94, cut for the highest 2% near 1.9. This is one part of the list.

Biological target: DNMT3B catalytic domain (mouse) (UniProt O88509)
Test: relative CpG methylation activity (normalised to average over all NNNCGNNN flanks) (relative (1 = mean)); higher = more methylation of the central CpG
Settings: system: in vitro, murine catalytic domain; CpG state: hemimethylated substrate pool; residues: 558-859
Procedure, shortened: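 For Illumina sequencing, DNA was processed by proteinase K, BsaI-HFv2 digestion, hairpin ligation, bisulfite conversion and two-step PCR after methylation by murine DNMT3A or DNMT3B catalytic domain. The methylation reaction contained 0.8 mM S-adenosyl-L-methionine in HEPES pH 7.5 buffer and ran at 37 °C for 60 min on pooled dsDNA substrates with a central CpG inside 10 random flanking nucleotides. Relative methylation activity was computed as the average methylation of each flanking context divided by the mean over all contexts. Contexts covered three flanking bases per side, and there were two independent repeats per experiment.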

Sequence of UniProt O88509 (O88509 558-859): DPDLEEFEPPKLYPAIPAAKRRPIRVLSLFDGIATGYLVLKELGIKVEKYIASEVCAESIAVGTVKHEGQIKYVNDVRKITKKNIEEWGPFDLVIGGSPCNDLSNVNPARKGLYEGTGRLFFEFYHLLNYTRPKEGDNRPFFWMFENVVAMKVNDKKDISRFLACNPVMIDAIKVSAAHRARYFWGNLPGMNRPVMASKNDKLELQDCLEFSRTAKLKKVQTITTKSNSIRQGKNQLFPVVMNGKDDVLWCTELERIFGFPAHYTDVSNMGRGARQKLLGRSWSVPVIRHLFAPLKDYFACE

Sequence	relative CpG methylation activity
TCCCGCCA	0.914
GGTCGTCA	0.469
CAGCGTGT	0.395
CCACGGAG	0.91
GACCGGCT	1.19
CTACGTTA	1.23
TCGCGTCC	1.05
TGGCGAAA	0.75
GCCCGTTG	0.357
TTACGCAA	1.46
ATTCGGAG	0.517
TATCGCGC	0.813
TAGCGGGC	0.929
AAACGGGC	1.53
ATTCGTTG	0.433
CACCGGTT	1.03
ATCCGCAA	0.62
CTCCGACC	1.41
ACCCGCTG	0.471
CCCCGGCG	1.95
GTGCGAAG	0.855
ACACGCTT	1.18
AGCCGGTC	0.888
TGCCGGAA	0.691
TGCCGGTT	0.661
TGGCGAGG	0.992

Sequence	relative CpG methylation activity
TGCCGGTA	0.798
GCTCGCTT	0.684
CGGCGGAC	0.58
GCCCGGCA	1.61
GCTCGCGC	0.688
GGACGCTT	1.05
CCTCGTAG	0.54
GCACGATT	1.81
TATCGCCT	0.949
TGACGGCC	1.54
ATACGTCA	1.37
TATCGAGG	1.5
GCACGCGG	0.792
TACCGTTC	0.567
TTGCGTTG	1.03
AATCGTCA	0.562
GCCCGCGC	0.756
CGGCGACG	0.698
AATCGTGA	0.231
GGCCGCAG	0.204
TACCGTGA	0.329
GGCCGAGG	0.95
TGACGGCA	1.53
CACCGGTA	1.2
TTACGCGA	1.32
GCTCGATT	1.44

Sequence	relative CpG methylation activity
GTACGCAC	1.36
TGTCGGCC	1.37
GCCCGAAA	1.25
CTCCGCGT	0.717
CATCGCAG	0.454
GAGCGAGG	1.07
AGACGCTG	0.968
TTACGCAT	1.44
CGACGGTA	1.21
CAACGCTA	1.15
CATCGACT	1.57
TCACGCTA	0.988
ATTCGGTA	1.26
CTTCGGAG	1.04
TCTCGGAA	0.758
ATTCGGAC	1.08
GCCCGCTC	1.05
TCACGGCT	1.83
ATCCGTCT	1.17
ATGCGCTT	0.883
CTCCGTCA	1.09
TAACGCGC	1.25
GAGCGTAA	0.459
CGACGAAT	1.09
TACCGTAC	1.06
CACCGGGA	1.18

Sequence	relative CpG methylation activity
GACCGTGA	0.114
TGTCGCGA	0.194
ATGCGGGC	1.43
TGTCGTTA	0.214
AGTCGCAG	0.242
CCACGTTG	0.521
TGTCGGGA	1.1
CCTCGGCG	1.72
TACCGTAG	0.176
CTGCGCGT	0.694
TGCCGTCG	0.205
CGACGGCC	1.46
TTACGTGT	1.24
GATCGCCC	0.736
CAACGGTG	1.49
CACCGCGA	0.31
GCACGGTC	1.47
TAGCGAAA	0.838
CAACGGAT	1.02
CGTCGCTC	0.705
TATCGGCA	1.95
ACTCGGAA	0.769
GCGCGTGA	0.478
AGTCGTAA	0.127
TGTCGGCA	1.54
CTACGGTG	1.7

Sequence	relative CpG methylation activity
CAGCGATT	1.14
GCTCGTTG	0.295
GGCCGTCC	0.655
TCTCGTCG	0.785
ACTCGGTA	1.12
CATCGCGT	0.667
TGACGAGG	1.23
GGACGAGC	1.7
GAGCGTAT	0.648
GGCCGCAT	0.203
ACCCGGGG	1.47
CGTCGCAC	0.431
AAGCGTTT	0.413
TCGCGGTC	0.887
CTACGGGG	1.9
TTCCGTCC	1.57
ACGCGGTG	0.999
ACACGTGG	0.376
GCTCGACA	1.19
GGACGGGA	1.15
TGGCGTTC	0.177
CGTCGGAT	0.754
ATTCGATC	1.64
TTACGCAG	1.3
TATCGAAT	1.41
AGCCGGGC	0.73

Sequence	relative CpG methylation activity
CGGCGAAA	0.759
ATCCGGAG	0.728
CGTCGCGG	0.625
CTTCGAAA	1.57
TTTCGTTC	1.09
TATCGGCC	2.01
CTTCGATC	1.65
TTTCGAGT	1.88
GTTCGGGA	1.24
CCACGAAG	1.12
ATCCGAGC	1.68
CTGCGCAG	0.754
ACCCGCAA	0.492
CAACGATA	1.77
TAGCGGCC	1.23
CGACGCTC	1.04
GATCGAGT	1.14
CTACGAGC	2.12
TAACGCTA	1.1
CCGCGCAA	0.463
GTTCGAGC	1.66
ATACGCAG	1.1
TCGCGTAG	0.566
GACCGCCA	0.457
TCACGATT	1.62
ATACGCCC	1.69

Sequence	relative CpG methylation activity
GCACGGAC	1.46
CAGCGGAT	0.496
TGGCGGGA	0.753
CTCCGAGA	1.73
ATTCGTTC	0.876
ACGCGAAG	0.742
GTACGGTC	1.87
TTTCGTCT	0.942
CCTCGACG	1.2
CTGCGCTG	0.95
TACCGATA	1.41
ATGCGGGT	1.25
GGTCGCGG	0.472
GTTCGGGT	1.37
ATACGAAA	1.6
GTGCGTAA	0.796
CTTCGCAC	0.989
TATCGAAC	1.75
CAGCGGTA	0.98
TGGCGATC	1.08
AGCCGTTT	0.174
GACCGTCA	0.328
CCTCGAGC	1.57
TCCCGCGA	0.402
CATCGAAT	1.56
CGCCGTAG	0.147

Sequence	relative CpG methylation activity
GCCCGCTA	0.804
CCGCGCGG	0.612
ATTCGGTT	1.37
TCTCGCTG	0.568
TCACGGTT	1.17
TTTCGGAG	0.893
AAGCGCAC	0.574
CAACGTTG	0.698
TTGCGTTT	0.893
TTGCGAGT	1.17
TCGCGCTC	0.83
GTTCGGAT	1.03
CCTCGCGG	0.599
GGCCGACA	0.701
CATCGCGG	0.514
CCTCGTAA	0.553
TTGCGTGA	0.744
TGTCGCCT	0.688
CGACGCAA	0.51
TATCGTAC	1
CGGCGGCA	1.28
ATACGTTG	0.943
AACCGCTA	0.438
TACCGCAC	0.649
GGACGTTT	0.617
GTTCGGAA	0.839

Sequence	relative CpG methylation activity
TTACGGTC	2.02
CGTCGTTG	0.207
GTGCGACC	1.15
GTTCGACT	1.08
AGGCGCTC	0.49
TGACGACT	1.03
CCTCGGGC	1.43
ACCCGGTA	1.22
GAACGCCA	1.35
GATCGGTT	1.04
ATACGACA	1.67
CGACGGCG	1.93
GGACGTAC	0.957
CTCCGTTT	0.739
AATCGTGC	0.376
CAACGAGC	1.74
TGTCGTGC	0.493
GCGCGTCC	0.656
CCACGTAG	0.8
GACCGGGG	0.511
CACCGTGT	0.272
CAGCGGCC	1.33
CGGCGCCC	0.699
TTTCGGTC	1.72
AGACGGAC	0.98
GACCGTAA	0.192

Sequence	relative CpG methylation activity
GAACGCCC	1.41
GAACGTGG	0.576
ATTCGGGT	1.25
GGCCGGAA	0.306
CCACGACG	1.15
AGCCGTAG	0.093
GGCCGGCA	0.942
CAGCGCCA	0.717
ATTCGCCG	1.06
GTACGGAG	1.39
CTTCGTTA	0.45
AAACGTTA	0.806
GACCGAAG	0.801
CAGCGTTG	0.359
ATGCGCTA	0.779
CCGCGTAA	0.515
TTACGGAA	1.64
GGCCGATC	1.11
AACCGTGT	0.157
CTACGCAT	1.19
CTACGGCT	2.28
TTCCGCGC	0.969
CACCGCAT	0.436
GCACGTGC	0.799
CTGCGTTG	0.895
GCCCGACC	1.33

Sequence	relative CpG methylation activity
ATACGTCT	1.63
AATCGGTG	1.03
ACCCGATG	1.27
CGGCGACA	0.606
CGACGCTG	0.442
TGCCGTTT	0.287
CAGCGGTC	0.91
GCCCGTAT	0.411
AGCCGGTG	0.487
CGTCGAGT	1.36
ATGCGGTA	1.09
TATCGATA	1.68
ACGCGTAT	0.756
GAGCGTCG	0.77
GATCGAGC	1.74
TTGCGCCG	1.22
CGTCGAAC	1.4
TTTCGGGG	1.47
AAGCGTGA	0.333
CCTCGACC	1.32
